Laboratory results published in the supplement of paper PMC3334620.
Over roughly 33,000 sequences, “E-score (-0.5 to 0.5)” has its median near -0.054; the highest 2% begin near 0.39. Some of the results follow.

biological target: Ylr278c (UniProt Q05854); assay: PBM E-score (8-mer binding enrichment) (E-score (-0.5 to 0.5)); higher = stronger / more preferred TF binding; most listed sequences are background and not binding sites; conditions: protein concentration: 200 nM; construct: GST-DNA-binding domain
How it was run: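 GST-tagged yeast TFs (full-length or DNA-binding domain) were made by PURExpress in vitro transcription/translation and applied at about 100-200 nM to universal all-10-mer Agilent arrays. The arrays were made double-stranded by primer extension, on fresh or once-stripped slides. Bound protein was detected with fluorescent anti-GST, and scans were normalised with masliner. Each ungapped eight-base word, pooled with its reverse complement, received an E-score (modified Wilcoxon-Mann-Whitney statistic) from the Universal PBM Analysis Suite.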

Sequence | PBM E-score
GAAACAAA | 0.0247
CTAGCTAG | -0.281
AGACGACC | -0.174
AAAGAAAG | -0.112
AGCGACCT | -0.0488
GCTAGTCC | 0.0489
AATTCTCA | -0.13
AATAGCAT | -0.0992
AGCTCTGA | -0.252
ATCGTGGC | -0.257
GGGGATTA | 0.175
TGCAAAAA | -0.139
ATTTCTCG | 0.242
CCGGTTGA | 0.303
GGCTGATA | -0.00703
AGGAGCGC | -0.0703
ACGAGCGG | 0.158
GTACGGAC | 0.249
GAATTACC | 0.127
GGCTGCCC | -0.0143
GCGCCAGC | -0.145
ACAGGGGG | -0.243
AAATGGAT | -0.0669
ATCCCGGA | 0.44
CAACCAGC | -0.102

Sequence | PBM E-score
CGAGTATC | 0.0505
CGTTTCAG | 0.0963
AGCATGAG | -0.208
CATTTACC | -0.0404
CACAGTCA | -0.256
ACGTACCC | -0.044
AATATGTG | -0.0175
CGTCAAAG | -0.172
CCTTATAA | 0.0645
TCAGCGGA | 0.347
GTGTGGGA | 0.0678
CATTCATC | -0.0892
CGAAAACG | -0.0308
CGGATGGA | 0.135
GCCTTATA | -0.0924
AATGATCT | -0.216
CCAAAAGC | -0.0745
CAGGCATC | -0.139
AGCATACC | -0.141
AGGATTAT | -0.0518
ACAACTCG | 0.0543
ATCGAACC | -0.0557
ACAGTACC | -0.0761
AGAAGCCA | -0.0384
ATGAGGAG | -0.132

Sequence | PBM E-score
CCCGTCAC | 0.157
ATCGATGC | 0.00684
GACGATAA | -0.00063
CCGACTAG | 0.19
AAATTTAT | 0.0131
CTTAATGA | -0.128
AGCGGCAT | 0.257
GTCCAGGA | -0.32
GCATTTCC | 0.227
TTCACCAA | -0.0791
AGTATCAC | -0.0655
GATCTTCC | 0.245
AATCACGG | 0.231
GTCGTACA | -0.11
ATGCGGAA | 0.383
CCACACGG | 0.144
AACACTAC | -0.085
CGGCACAG | 0.194
GAGATTTA | 0.106
AGAATCGC | 0.00255
CACTATGC | -0.0508
CCGCGAAA | 0.296
AGCCGTGC | -0.00625
ACTTAATA | 0.0617
CAAAGCTA | -0.093

Sequence | PBM E-score
ACGCCAAA | -0.139
GGATTGAC | 0.0351
GATCGGAC | 0.434
ATATGCAC | -0.0858
AGGTGGTC | -0.155
GTTACCCA | -0.158
ATCGTTGG | -0.161
AAGTATCA | -0.141
AAGATTAC | 0.0222
ACCTGAGG | -0.171
GCGATAGA | -0.109
ATATAGCA | -0.253
ACACGCGG | 0.192
GCTACACC | -0.12
CAAACCAA | -0.0195
ACATGTAG | 0.0459
GCCTGGAA | -0.256
CAACACTG | -0.251
CGCTACCC | -0.0897
AAACTGCC | -0.0969
CGTTCAGA | -0.205
AGTACAAA | -0.111
CGGCGATA | 0.335
CGATAACA | 0.245
ATGATGCA | -0.223

Sequence | PBM E-score
ATTGCATA | -0.025
AACACGAG | -0.151
CCGCAGAG | -0.0375
AGCTAACC | -0.0803
ACTGATAT | -0.215
ACACAAAT | 0.127
AAGCATGG | -0.147
CATACACG | -0.146
CTGCAGGA | -0.0759
CGAGCTCA | 0.164
CAGGTAAG | -0.0893
AGGCGGTA | -0.0577
GTAAGCGA | -0.182
CCATAAAC | -0.0862
TCCGAGAA | 0.421
GAATGACA | -0.176
AATAGCGT | -0.00358
GGGTGGCA | -0.0476
GGTCCCAC | 0.0333
AGACGCGC | -0.0782
CGACCCGA | 0.0126
AAGAATGT | -0.168
CCAGGCGG | 0.17
AGGTCGAA | -0.234
ATTAAGGC | -0.0652

Sequence | PBM E-score
CACTTTAC | -0.0418
CTAATCAA | 0.0158
CGTCTAAC | -0.00517
AGGACGCC | -0.0974
CAGCGAAA | -0.0902
ATGGGGTG | -0.146
GGTTACGA | -0.0858
GTGGCCTA | -0.135
CCCTTTCA | -0.143
GCTAATAC | 0.082
CTCTTCCA | -0.0203
ACATTATA | -0.165
CACGGGGA | 0.255
ATTACAAG | -0.101
TTGATAAA | 0.0403
ATAACGGG | -0.0411
ATGAATCA | -0.127
GACAAGTC | -0.071
CCGTATCA | 0.171
ATACCGGC | 0.354
CTGTTTAA | -0.029
AATCGCAA | -0.0343
CCTTCGTA | -0.146
CTTTCGGC | 0.239
CACATCTG | -0.0441

Sequence | PBM E-score
AGTACGGG | -0.0881
TAAGCTAA | -0.0954
GTCGCCAC | -0.23
AAGTAAAC | -0.00864
ATGGATAC | -0.157
AAACAAAG | 0.0712
TCTGGTAA | -0.0791
CGATAGTC | -0.0611
CGTGGCAA | -0.154
TCATTTAA | -0.135
GTACCGAC | 0.197
AGAACTCT | -0.277
AGGCACCG | 0.0765
GAGAGGCA | 0.00531
CCACACCA | -0.21
ATCGGCTA | 0.101
TATAACGA | -0.17
CCCACCTA | -0.105
ACGAGTGC | -0.0431
ACTAAACC | 0.0358
CCGTTGAA | 0.0314
CAGAATCC | 0.0232
